Measured values from ChEMBL document CHEMBL1157539, “Thousands of chemical starting points for antimalarial lead identification” (Nature, 2010).
In all, about 13,000 compounds were measured (“IFI”: median about 4, highest 2% from about 17 on). This is one part of the list.

experiment: GSK_TCMDC: Inhibition Frequency Index (IFI). The number of non-kinase HTS assays where a compound showed > 50 % inhibition, expressed as a percentage of the number of such assays in which the compound was tested (-0 is zero); assay type: functional

In order of falling IFI:
1. O=C(Nc1ccc(C(F)(F)F)cc1)Nc1ccccc1N1CCNCC1  13.8%
2. CC(C)(C)N1CCC(N(Cc2ccc(-c3ccc(C(F)(F)F)cc3)cc2)C(=O)Cn2c(CCc3cccc(F)c3F)cc(=O)c3ccccc32)CC1  13.3%
3. Cc1cc(N[C@@H](Cc2ccccc2)C(=O)NCc2cccc(F)c2)nc(NCCc2cccs2)n1  12.8%
4. c1cc(CNC2Cc3ccccc3C2)cc(-c2cnc(N3CCNCC3)nc2)c1  11.5%
5. CCCC(C)Nc1nc(C)cc(N[C@@H](CC(C)C)C(=O)NCc2cccc(F)c2)n1 (stereo partly specified)  11.4%
6. Cc1nc(C)c(CC(=O)Nc2ccc(-c3cccc(-c4nc5cc(C(F)(F)F)ccc5[nH]4)c3)cc2)s1  10.6%
7. NCCCNc1ccc(-c2ccc(NC(=O)Nc3cc(C(F)(F)F)ccc3F)cc2)cn1  9.88%
8. CO/C(=C\C=C\c1cc2cc(Cl)c(Cl)cc2[nH]1)C(=O)NC1CCN(CCCc2ccccc2)CC1  9.49%
9. CN(C)CCNCc1cccc(-c2ccc3c(Nc4ccc(Oc5ccccn5)cc4)ccnc3c2)c1  8.76%
10. CCOC(=O)/C(=N\OC(C)(C)C(=O)NCc1ccc(O)c(O)c1)c1csc(NC(c2ccccc2)(c2ccccc2)c2ccccc2)n1  8.03%
11. Nc1ncc(-c2ccccc2)cc1-c1cccc2ncccc12  8%
12. COc1ccc(Nc2ncc3c(-c4cccc(NC(=O)Cc5cccc(O)c5)c4)c[nH]c3n2)cc1OC  7.91%
13. COc1ccccc1C(C)NCC(=O)Nc1ccccc1Sc1ccccc1 (stereo unspecified)  7.32%
14. c1ccc(CN2CCc3cc4nccc(N5CCNCC5)c4cc32)cc1  7.3%
15. O=C(C=Cc1ccc(Cl)c(Cl)c1)NCCCCCN1CCC(CCCNC(=O)c2ccc3c(c2)OCO3)CC1  6.77%
16. CN(C)CC(=O)N(Cc1ccc(Cl)c(Cl)c1)Cc1csc(-c2ccc(CNCc3ccccc3)cc2)n1  6.76%
17. O=C(c1ccc(F)c(F)c1)N1CCOC(CCN2CCC(c3ccccc3)CC2)(c2ccc(Cl)c(Cl)c2)C1 (stereo unspecified)  6.76%
18. O=C(/C=C/c1ccc(Cl)c(Cl)c1)NCCCCCN1CCCN(C(=S)Nc2ccc(Cl)cc2)CC1  6.4%
19. CN1CCN(CC(=O)Nc2cccc(-c3ccc(-c4nc5cc(C(F)(F)F)ccc5[nH]4)cc3)c2)CC1  6.25%
20. CC1(C)CCCC(=Cc2ccc(Br)cc2)C1(O)Cn1ccnc1 (stereo unspecified)  5.88%
21. CC(C)CNCc1cccc(-c2cccc(CN(CCN(C)C)C(=O)Nc3ccccc3)c2)c1  5.76%
22. COc1ccc(N2CCN(CCCCNC(=O)c3ccc(NC(=O)c4ccc(Cl)cc4)cc3)CC2)c(OC)c1  5.07%
23. Cc1cccc2nc(-c3cccc(-c4cccc(NC(=O)Nc5ccc(Cl)cc5)c4)c3)[nH]c12  5%
24. N#Cc1cccc(NC(=O)c2cccc(S(=O)(=O)NC3CCN(CC4CCCCC4)C3)c2)c1 (stereo unspecified)  4.9%
25. OCc1ccc(-c2cncc(Nc3cccc(Cl)c3)c2)cc1  4.62%
26. COc1ccc(Nc2cc(C)nc(NCc3ccc4c(c3)OCO4)n2)cc1  4.58%
27. CN(Cc1cnc2nc(N)nc(N)c2n1)c1ccc(C(=O)N[C@H](CCC(=O)OC(C)(C)C)C(=O)N[C@@H](CCC(=O)OC(C)(C)C)C(=O)OC(C)(C)C)cc1  4.35%
28. COc1ccc2nccc([C@@H](O)CN3CCC(NC(=O)c4[nH]c5ccccc5c4-c4ccccc4)CC3)c2c1  3.65%
29. CCCCCN1CCCCC(NS(=O)(=O)c2ccc(C(=O)Nc3ccc(C(F)(F)F)cc3)cc2)C1 (stereo unspecified)  3.61%
30. Cc1ccc(O)cc1Nc1ccnc2cc(-c3cccc(CNCCS(C)(=O)=O)c3)ccc12  3.6%
31. CCCN1CCN(Cc2ccc(-c3ccc(-c4nc5ccccc5[nH]4)s3)cc2)CC1  3.31%
32. COc1cc2nc(N3CCC(NC(=O)c4cccc(N(C)C)c4)CC3)nc(N)c2cc1OC  3.25%
33. COc1cccc(-c2c(C#N)c(N)nc3c2c(C)nn3-c2ccccc2)c1O  2.94%
34. CC(=O)C1=NN(c2ccc(C)cc2)C(c2cccs2)N1c1ccccc1 (stereo unspecified)  2.65%
35. CSc1cccc(Nc2nc3ccc(S(=O)(=O)NC(C)C(C)C)cc3n2[C@H](C)C(C)(C)C)c1 (stereo partly specified)  2.19%
36. O=C(NCc1ccc(C(F)(F)F)cc1)c1cccc(-c2nnc(-c3cccc(-c4cncnc4)c3)o2)c1  2.16%
37. CC1(C)NC(N)=NC(=N)N1OCCc1ccc(N)cc1  2.1%
38. CC(=O)Nc1ccc(NC(=O)c2cc(-c3cc(Cl)ccc3O)n[nH]2)cc1  1.94%
39. O=c1ccc2ccc(F)c3c2n1CC3CN1CCC(NCc2ccc(-c3cccc(Cl)c3)nc2)CC1 (stereo unspecified)  1.82%
40. CCCn1c(O)nnc1SCC(=O)Nc1cc(C(F)(F)F)ccc1Cl  1.57%
41. C=CCN1Cc2c(O)cccc2C(c2ccc(O)c(O)c2)C1 (stereo unspecified)  1.47%
42. CC(C)(C)c1ccc2[nH]c(-c3ccc(/C=C/C(=O)NCc4ccc(Cl)c(Cl)c4)cc3)nc2c1  1.47%
43. COc1ccccc1COc1c(C)nc(N)nc1N  1.45%
44. NC1=NC2(CCCCC2)N(OCCCCCCCCNc2nc(N)nc(N)n2)C(N)=N1  1.44%
45. CCCNCc1ccc(-c2ccc(CN(CC3CCCO3)C(=O)C3CC(=O)c4ccccc43)cc2)nc1 (stereo unspecified)  1.41%
46. Cc1ccnc2nc(C(=O)Nc3cc(Cl)ccc3N3CCOCC3)nn12  0.83%
47. CCOC(=O)CC[C@H](NC(=O)c1ccc(NS(=O)(=O)c2ccc(-c3cnc(N)[nH]c3=O)cc2)cc1)C(=O)OCC  0.75%
48. CCNc1cc(C(=O)N[C@@H](Cc2ccccc2)[C@H](O)CNC2(C(C)C)CCC2)cc(N2CCCCS2(=O)=O)c1  0.75%
49. COc1cc2ncnc(Nc3ccc(Br)c(Cl)c3)c2cc1OC  0.74%
50. COc1ccccc1CNC(=O)c1nn(-c2ccc(Cl)cc2)c(=O)c2ccccc12  0.69%
51. Cc1cccc(C)c1OC(=O)CSc1nnc(-c2ccccc2O)o1  -0%
52. O=C(c1cc(-c2cccs2)n[nH]1)N1CCN(S(=O)(=O)c2ccc(Br)cc2)CC1  0%
53. Cc1cccn2c(=O)c3cc(C(=O)NCCN4CCOCC4)c(=N)n(CCc4ccccc4)c3nc12  -0%
54. Nc1ncc(-c2cccc(OCc3ccccc3)c2)cc1-c1nnc2ccc(Cl)nn12  -0%
55. O=[N+]([O-])c1c(O)nc2c(c1O)CCC2  0%
56. CNC(=O)CSc1nnc(-c2ccc(C)cc2)c(-c2ccc(C)cc2)n1  -0%
